The campaign covered roughly 310,000 compounds. About 2,200 (0.71%) showed an effect of 50% or more. The effect is printed as a negative number. Some of the results follow.
molecular target: human ether-à-go-go-related gene (hERG) potassium channel (human, UniProt Q12809); test: primary screen, population patch clamp on CHO cells stably expressing hERG
Sequence (Q12809 whole entry, looked up): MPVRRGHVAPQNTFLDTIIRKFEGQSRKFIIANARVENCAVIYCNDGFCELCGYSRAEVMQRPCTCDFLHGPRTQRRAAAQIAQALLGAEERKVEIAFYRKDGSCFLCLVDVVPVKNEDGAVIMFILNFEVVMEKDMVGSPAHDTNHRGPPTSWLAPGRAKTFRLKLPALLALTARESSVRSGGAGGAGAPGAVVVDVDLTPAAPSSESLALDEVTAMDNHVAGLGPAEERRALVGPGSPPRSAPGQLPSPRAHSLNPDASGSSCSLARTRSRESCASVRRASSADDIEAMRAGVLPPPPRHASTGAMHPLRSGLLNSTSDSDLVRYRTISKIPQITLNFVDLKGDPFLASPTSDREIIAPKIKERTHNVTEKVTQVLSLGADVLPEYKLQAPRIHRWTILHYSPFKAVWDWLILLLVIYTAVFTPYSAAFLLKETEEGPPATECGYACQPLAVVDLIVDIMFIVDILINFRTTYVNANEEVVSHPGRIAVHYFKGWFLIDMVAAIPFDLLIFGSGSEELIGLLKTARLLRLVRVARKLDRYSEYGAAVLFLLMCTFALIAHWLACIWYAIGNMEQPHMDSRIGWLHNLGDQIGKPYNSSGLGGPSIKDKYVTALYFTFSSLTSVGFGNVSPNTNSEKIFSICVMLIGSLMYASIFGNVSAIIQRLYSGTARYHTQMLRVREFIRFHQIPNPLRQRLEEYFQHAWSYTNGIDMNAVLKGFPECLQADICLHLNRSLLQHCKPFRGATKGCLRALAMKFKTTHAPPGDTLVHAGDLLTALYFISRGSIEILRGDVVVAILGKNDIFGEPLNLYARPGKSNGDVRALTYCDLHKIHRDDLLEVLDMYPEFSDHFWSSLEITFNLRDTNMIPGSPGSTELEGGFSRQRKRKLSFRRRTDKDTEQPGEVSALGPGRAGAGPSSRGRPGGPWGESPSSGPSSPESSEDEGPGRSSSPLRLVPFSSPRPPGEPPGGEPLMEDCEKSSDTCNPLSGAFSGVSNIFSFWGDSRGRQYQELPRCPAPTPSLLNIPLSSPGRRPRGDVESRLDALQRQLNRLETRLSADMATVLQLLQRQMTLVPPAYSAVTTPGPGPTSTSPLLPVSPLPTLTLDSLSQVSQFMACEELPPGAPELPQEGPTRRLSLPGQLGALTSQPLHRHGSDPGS

| Structure (SMILES) | hERG current change (%, negative = inhibition) at 1uM |
| --- | --- |
| COc1cccc(NC(=O)CN(C)C(=O)c2cc(S(=O)(=O)N3CCCCCC3)ccc2OC)c1 | -2.8% |
| CCCCc1ccc(NC(=O)CSC2=C(C#N)C(c3ccco3)C3=C(CCCC3=O)N2)cc1 (stereo not shown) | 10.8% |
| COc1ccc(C(=O)CCN2CCN(c3ccccc3OC)CC2)cc1.Cl | -4.48% |
| Cc1nc2ccc(N=NC3=C(O)CCCC3=O)cc2s1 | 12.5% |
| COCCn1c(SCC(=O)Nc2sc(C)c(C)c2C#N)nnc1-c1ccc(OC)cc1 | -5.5% |
| CN(C)/C=C1\C(=O)N(c2ccc([N+](=O)[O-])cc2)N=C1c1ccccc1 | -5.03% |
| Cc1cc(NC(=O)c2ccc3c(c2)C(=O)N(CC(C)C)C3=O)no1 | 12.3% |
| Cn1cc(Cl)c(C(=O)N2CCN(c3ncccn3)CC2)n1 | 9.35% |
| COc1ccccc1N(CC(=O)NC1CCCC1)C(=O)CCC(=O)Nc1cc(C)on1 | 8.06% |
| Cc1ccc2c(c1)c1c3n2CC(=C2C(=O)OC(C)(C)OC2=O)NC3CCC1.Cl (stereo not shown) | 2.59% |
| COCCCn1c(Cc2csc(Nc3cccc(Cl)c3)n2)nnc1SCC(=O)OC1CCCCC1 | -0.506% |
| COCCCn1c(-c2ccc(Cl)cc2)n[nH]c1=S | 22.4% |
| O=C(NCc1ccccc1)NC1(C(=O)N2CCN3CCCC3C2)CCCCC1 (stereo not shown) | 2.87% |
| Cc1cccc(N2CCN(C(c3ccccc3)c3nnnn3CC3CCCO3)CC2)c1C (stereo not shown) | 9.57% |
| Cc1ccnc(NC(=O)CSc2ccccn2)c1 | 15.3% |
| COc1cccc2sc(N(CCCN(C)C)C(=O)c3sc4ccccc4c3Cl)nc12.Cl | 10.5% |
| Cc1ccc(CNC(=O)C2CCC(CNc3c(N4CCOCC4)c(=O)c3=O)CC2)cc1 (stereo not shown) | 20.6% |
| Cc1ccc(S(=O)(=O)/N=C2/NC(=O)/C(=C/c3ccccc3)S2)cc1 | -17.1% |
| COc1cc2c(cc1OC)C(C(=O)Nc1cccc(C)n1)C(c1cccnc1)N(C)C2=O (stereo not shown) | 4.28% |
| Cc1nnc(NC(=O)CSc2ccc3nnc(-c4ccccn4)n3n2)s1 | 12.1% |
| O=[N+]([O-])c1ccc(N2CCOCC2)cc1O | 7.58% |
| CC1=C(C)CC(C(=O)c2ccc(C)cc2)C(C(=O)O)C1 (stereo not shown) | 1.94% |

| Structure (SMILES) | hERG current change (%, negative = inhibition) at 1uM |
| --- | --- |
| C=CCN(c1ccc(C(=O)OC)cc1)S(=O)(=O)c1ccccc1 | -0.566% |
| CCOC(=O)c1sc(NC(=O)c2sccc2C)cc1C | 9.64% |
| O=C(Cn1nnc(-c2ccccc2)n1)N/N=C/c1ccco1 | 15.9% |
| CCNC(=S)N1CCN(S(=O)(=O)c2cccc(C(F)(F)F)c2)CC1 | 10.7% |
| O=C(COC(=O)c1n[nH]c2ccccc12)c1ccc(F)c(F)c1 | 6.22% |
| Cc1ccn2c(=O)nc(SCC(=O)NCCc3ccccc3)nc2c1 | -8.94% |
| CC(C)Nc1nc2cccnc2s1 | 11.4% |
| COc1ccc(NC(=O)c2c(C(F)(F)F)nn(C)c2SCc2ccccc2Cl)cc1 | 6.71% |
| COc1ccc(C)cc1NC(=O)c1c(C)nn(Cc2ccccc2)c1Cl | 1.24% |
| CN(CCc1ccccc1)C1CCCN(C(=O)Cn2cccn2)C1 (stereo not shown) | 8.7% |
| C=CCNC(=O)c1cc2nc(C3CC3)cc(C(F)F)n2n1 | 5.93% |
| CCOC(=O)C(=NC(C)CC)NNc1ccc(Br)cc1 (stereo not shown) | 16.9% |
| CCOC(=O)N1CCN(Cc2c(O)ccc3ccccc23)CC1 | 4.73% |
| CCCOc1ccc(C2C(C(=O)c3ccco3)=C(O)C(=O)N2CCCn2ccnc2)cc1 (stereo not shown) | -2.65% |
| O=C(Nc1nnc(COc2ccccc2)s1)c1ccco1 | 9.83% |
| COc1ccccc1-n1c(=O)c(C#N)c(-c2ccc([N+](=O)[O-])cc2)c2cc(C(=O)c3ccccc3O)cnc21 | 8.44% |
| COc1ccc(NC(=O)CSc2nnc(Cc3cccn3C)n2CCc2ccccc2)c(OC)c1 | 3.67% |
| CC(C)(C)CC(=O)Nc1nn[nH]n1 | 13.3% |
| CC1=C(C#N)CCC(=O)N1Cc1c(F)cccc1Cl | 15.6% |
| CN(Cc1ccc(F)cc1)C(=O)c1ccc2c(c1)NC(=O)CS2 | -4.06% |
| C(=N\c1c(-c2ccccc2)nc2n1CCS2)/c1ccccc1 | 13.9% |
| CCc1nnc(NC(=O)c2cc(-c3ccncc3)nc3ccccc23)s1 | 11.1% |

| Structure (SMILES) | hERG current change (%, negative = inhibition) at 1uM |
| --- | --- |
| S=C(NCc1ccccn1)Nc1ccccc1 | 7.18% |
| Fc1ccc(-c2nc3c(-c4ccc(F)cc4)cnn3cc2CCN2CCOCC2)cc1 | -3.19% |
| CCCc1n(CC)c2ccccc2[n+]1CC(O)COC1CCCCC1.[I-] (stereo not shown) | 4.05% |
| CC(C)C(=O)N(Cc1ccccc1)c1ccccn1 | 7.2% |
| CC(NC(=O)C1CCN(S(=O)(=O)c2cc([N+](=O)[O-])ccc2Cl)CC1)c1ccccc1 (stereo not shown) | 8.98% |
| O=C1CS/C(=C/C(=O)c2cccc(Cl)c2)N1 | 12.6% |
| CC(=O)O.Cc1nc(NCCc2ccc(F)cc2)c(C#N)c(C)c1[N+](=O)[O-] | -41.9% |
| COCCn1c(=O)[nH]c2cc(C(=O)NC3CCCCCC3)ccc2c1=O | 6.24% |
| COC(=O)C1=C(c2ccc(-c3ccccc3)c(F)c2)C[C@@H]2CC[C@H]1N2C(=O)NCc1ccco1 | 23.6% |
| CCc1ccc(C2CC(c3ccccc3C)n3nc(N)nc3N2)cc1 (stereo not shown) | 9.04% |
| Cc1cc(Cl)ccc1OCC(=O)NCCOc1nc(N2CCCCC2)nc(N2CCOCC2)n1 | -3.98% |
| CCOc1ccc(C(C(=O)NCC2CCCO2)N(C(=O)c2snc(C(N)=O)c2N)c2ccc3c(c2)OCCO3)cc1 (stereo not shown) | 8.86% |
| COc1ccc(/C=N/NC(=O)C(C)n2nnc3ccccc32)cc1OC (stereo not shown) | 9.98% |
| C=CCNC(=S)NNC(=O)c1cccnc1 | 11.7% |
| COc1cc(C(CCN2CCOCC2)c2c(OC)cc(OC)c3c(C)cc(=O)oc23)cc(OC)c1OC (stereo not shown) | -70.3% |
| O=C(Nc1ccccc1)N1CCC2(CC1)OCCO2 | 6.31% |
| Cc1ccc(C(=O)N/N=C/c2cn(Cc3ccccc3)c3ccccc23)cn1 | 13.9% |
| O=C(CNC1CCCCC1)Nc1ccc([N+](=O)[O-])cc1C(=O)Nc1ccccc1F | 2.97% |
| C/C(=N\O)c1ccc2c(c1)OCCO2 | 12.6% |
| O=C(CCSc1ccccc1)Nc1ccccc1C(=O)N1CCCC1 | 2.77% |
| Cc1c(NC(=O)CSc2ccccc2C(=O)Nc2cccnc2)c(=O)n(-c2ccccc2)n1C | 11.7% |
| Cc1ccc(C(=O)OCC(=O)N(C)C2CCS(=O)(=O)C2)cc1S(=O)(=O)N1CCCCC1 (stereo not shown) | 3.88% |

| Structure (SMILES) | hERG current change (%, negative = inhibition) at 1uM |
| --- | --- |
| CCc1ccc(CNn2cnnc2SCC(=O)NC(C)(C)C)cc1 | 2.56% |
| CCC1(C)Cc2ccccc2-c2nc[nH]c(=O)c21 (stereo not shown) | 12.5% |
| ClCc1nc2ccccc2n1Cc1ccccc1 | 15.7% |
| COc1ccc(NC(=O)CSc2nc3ccccc3c(=O)n2C)cc1 | 11.1% |
| O=C(O)/C=C\C(=O)Nc1ccc(F)c(F)c1F | 4.48% |
| COc1ccc(N2CCN(S(=O)(=O)c3cn(C)c(=O)n(C)c3=O)CC2)cc1 | 7.97% |
| CCC(C)NC(=O)CC(NS(=O)(=O)c1ccc(C)cc1)c1ccc(OC)cc1 (stereo not shown) | 2.46% |
| O=C(c1ccc(Cl)cc1)N1N=C(c2ccccn2)CC1(O)C(F)(F)F (stereo not shown) | 9.99% |
| COC(=O)[C@@H](Cc1c[nH]c2ccccc12)NC(=O)c1ccc2c(c1)OCO2 | 8.37% |
| S=C(Nc1cccc(Cl)c1)NC1CCCCC1 | 14.8% |
| Cc1ccc(NC(=O)C(C)SCC(=O)Nc2ccc(F)cc2)cc1S(=O)(=O)N1CCOCC1 (stereo not shown) | 0.559% |
| C=C[C@]1(C)C=C2CCC3[C@](C)(CCC[C@@]3(C)C(=O)O)C2CC1 (stereo partly shown) | 8.93% |
| COc1ccc2c(c1)nc(N)n2Cc1ccccc1 | -6.73% |
| O=C(NNC(=O)C12CC3CC(CC(Cl)(C3)C1)C2)c1csc(N2CCOCC2)n1 | 10.6% |
| CC(C)C(=O)NC(CC(=O)O)c1ccccc1 (stereo not shown) | 6.34% |
| Cc1ccc(CNC(=O)CN(c2ccc(C)cc2)S(=O)(=O)c2c(C)n[nH]c2C)cc1 | 4.29% |
| CCOC(=O)C1CCN(C(=O)c2ccccc2NS(=O)(=O)c2ccccc2)CC1 | 1.08% |
| COc1cc(NC(=O)CCc2nnc3ccc(N4CCC5(CC4)OCCO5)nn23)cc(OC)c1 | 15.9% |
| O=C(Cc1cccs1)NNC(=O)c1ccc(F)cc1 | 9.06% |
| Cc1ccc(CN(C(=O)c2cc(=O)c3cc(C)cc(C)c3o2)C2CCS(=O)(=O)C2)cc1 (stereo not shown) | 10.8% |
| CCCC(=O)Nc1c(-c2cccs2)c(=O)c2ccccc2n1C | 5.25% |
| ClCc1ncc(-c2ccc(Cl)cc2)o1 | 18.7% |

Source: publication PMC4336329 (PLoS ONE, 2015)
